Test results published in the supplement of paper PMC3334620.
The full ranking holds about 33,000 sequences; the median of “E-score (-0.5 to 0.5)” is about -0.035, and the highest 2% start at about 0.34. The list shows a part of the results.

The sequences below were run against T1, Mot3 (UniProt P54785) (assay: PBM E-score (8-mer binding enrichment) (E-score (-0.5 to 0.5)); higher = stronger / more preferred TF binding; most listed sequences are background and not binding sites). Details: protein concentration: 200 nM; construct: GST-full length.
T1 sequence: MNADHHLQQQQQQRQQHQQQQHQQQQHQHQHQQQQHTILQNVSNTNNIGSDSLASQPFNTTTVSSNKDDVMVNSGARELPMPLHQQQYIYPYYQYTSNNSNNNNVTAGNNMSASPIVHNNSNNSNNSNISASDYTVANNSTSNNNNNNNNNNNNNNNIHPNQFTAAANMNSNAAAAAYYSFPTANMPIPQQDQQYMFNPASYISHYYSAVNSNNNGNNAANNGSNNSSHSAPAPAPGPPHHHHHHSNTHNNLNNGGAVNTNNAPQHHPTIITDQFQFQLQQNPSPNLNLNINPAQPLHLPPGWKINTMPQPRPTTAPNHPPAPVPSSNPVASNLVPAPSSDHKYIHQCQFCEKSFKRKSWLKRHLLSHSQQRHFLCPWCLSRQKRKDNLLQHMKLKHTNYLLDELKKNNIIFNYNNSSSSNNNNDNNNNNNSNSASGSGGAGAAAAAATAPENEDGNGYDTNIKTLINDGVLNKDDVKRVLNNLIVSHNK
Method: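 Universal 'all 10-mer' protein binding microarrays (Agilent AMADID 015681) probed with GST-tagged S. cerevisiae TFs (full-length or DBD) made by in vitro transcription/translation (PURExpress), about 100-200 nM. Bound TF was detected with fluorescent anti-GST. Each ungapped 8-mer (which stands for itself and its reverse complement) is scored by the PBM enrichment score (E-score), a modified Wilcoxon-Mann-Whitney statistic from -0.5 to +0.5, computed with the Universal PBM Analysis Suite. Scale: above 0.35 generally sequence-specific binding.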

| Sequence | PBM E-score |
| --- | --- |
| TCTATGAA | -0.0472 |
| ATCCCAGA | -0.189 |
| GGCTGCAA | -0.2 |
| ACCTGCCA | -0.0155 |
| TCATGACA | 0.159 |
| GAACGACC | -0.223 |
| CCTGAAGA | -0.0495 |
| ATTAATCA | 0.147 |
| AGCAGGGA | -0.167 |
| AAAACCGA | -0.14 |
| AATGTCTG | -0.0738 |
| AATCGAGG | -0.141 |
| CGCGATGA | -0.0507 |
| CTCCACAG | -0.0711 |
| TCCCGTCA | 0.017 |
| TAAAACGA | 0.0299 |
| CAATGTAA | 0.34 |
| AATAGAGT | -0.11 |
| CAAGTGAG | -0.0953 |
| ACAACCAG | 0.0744 |
| ATGTACCC | 0.136 |
| ATGGCAAA | -0.0305 |
| AACATGAG | 0.277 |
| CTACACGA | 0.377 |
| AAACATCC | 0.0522 |

| Sequence | PBM E-score |
| --- | --- |
| AGGCACAT | 0.49 |
| CACACACA | 0.249 |
| CGCATGAA | -0.123 |
| AGAAGAAC | 0.0298 |
| AATGTATC | 0.181 |
| CCCATCCC | -0.211 |
| CAGCAGAA | -0.17 |
| GCGTCGAA | -0.105 |
| CCTGCGAA | 0.174 |
| CTAACTAG | 0.0273 |
| ACGTAAGT | 0.199 |
| AAGCCTTG | 0.0872 |
| GACTATGC | -0.0237 |
| GCCTGGCC | -0.0455 |
| ATACGATA | 0.149 |
| CCGGAGCC | -0.0488 |
| ACCTTGAA | 0.32 |
| CCTATCCA | 0.0238 |
| ATTTGTCG | 0.102 |
| ACTATGAC | 0.0502 |
| AGGGATGC | -0.0438 |
| ACGAACTG | -0.0561 |
| AAATTACG | 0.249 |
| CAAGAGGG | -0.154 |
| CGGGAGAA | -0.0878 |

| Sequence | PBM E-score |
| --- | --- |
| AGGAGTTA | 0.0744 |
| TACGGGAA | -0.171 |
| AACGTATG | 0.0662 |
| ACCACCCG | -0.147 |
| TACACGAA | 0.359 |
| ATCCGTTG | -0.138 |
| GACCACCC | -0.238 |
| TCACATCA | 0.0604 |
| CCTCATGA | -0.15 |
| ACCTAGTC | -0.0377 |
| AGGGCTAT | -0.114 |
| ATGGATGA | -0.00724 |
| ACACCGAG | 0.0562 |
| CCTGGAAG | -0.156 |
| CTGCCGAA | 0.0799 |
| AATGGAAG | -0.0818 |
| ACTGGCGA | -0.159 |
| ACGACATC | 0.0166 |
| CACTACCC | -0.236 |
| CCCGGAAA | -0.138 |
| ACTAGCGC | -0.242 |
| AAAGAGAG | 0.136 |
| CAGGATCG | -0.0672 |
| CAATTTCG | 0.0226 |
| ACTAATCA | -0.0635 |

| Sequence | PBM E-score |
| --- | --- |
| ATTATCAA | 0.185 |
| CCGCAACG | 0.11 |
| AACTGATC | 0.0315 |
| CCATCCAC | -0.262 |
| TCATATCA | 0.0586 |
| GTTGGATA | -0.111 |
| ATAGGGTG | -0.196 |
| CAGCCCGG | -0.239 |
| GCGCGTAC | 0.117 |
| CATAAGGA | 0.112 |
| AGTCATCC | -0.233 |
| ATCGCTCC | -0.323 |
| TCAAGAGA | -0.15 |
| CTCCGACA | -0.0307 |
| ACTCTTGG | -0.0672 |
| CCCATCGG | -0.154 |
| AGGCTCTA | 0.00663 |
| ATTAGCCA | -0.147 |
| ACATGATA | 0.35 |
| ACCTCGAA | -0.11 |
| ACAGGAAA | 0.453 |
| CCGGGGAC | -0.307 |
| GTCTATCA | 0.0667 |
| GTACCCCA | -0.113 |
| CTACGTCC | -0.0349 |

| Sequence | PBM E-score |
| --- | --- |
| ACAGGGCT | -0.0756 |
| CCCCTCAA | -0.141 |
| GGGCTTAC | -0.0847 |
| AAGGTGTG | -0.0849 |
| ATTTAAGA | 0.0264 |
| ACGTAGCC | -0.0475 |
| ACATTACC | 0.09 |
| AATCCAAA | -0.122 |
| GCCACCTA | -0.00864 |
| CCCGTGGC | -0.33 |
| AATTCACG | 0.0872 |
| CATGGGCA | 0.0949 |
| GTGCAGCA | -0.227 |
| ACAGAATA | 0.218 |
| GAATACAC | 0.363 |
| GCTGTTCA | -0.053 |
| AGGTTACA | 0.267 |
| TAGGACAA | -0.1 |
| GCAAGTGA | 0.0582 |
| CGCACTAG | -0.042 |
| CTATCCCC | -0.301 |
| AATTGACC | 0.0411 |
| CAGTATTA | 0.012 |
| ACGAGAAT | -0.0237 |
| AAACTGCA | -0.0533 |

| Sequence | PBM E-score |
| --- | --- |
| CAGGACGA | -0.0466 |
| AGGTTCCC | 0.142 |
| CGCTCTAG | -0.195 |
| AACTGGGC | -0.183 |
| AGGGCCGG | -0.406 |
| AACTTTTC | 0.0979 |
| AAGTAGGG | -0.08 |
| CAACCTAC | 0.0449 |
| GGGACGCA | -0.283 |
| AACATCCC | 0.0421 |
| AAGCATCT | -0.105 |
| CGAGCGAC | -0.144 |
| AGTAACCA | -0.0417 |
| AACCACTC | -0.0639 |
| ACAATTGT | -0.039 |
| ACCTATGA | -0.142 |
| CCCTATCA | -0.0323 |
| GTCTACAC | 0.275 |
| CATCCCTA | -0.092 |
| CCTACTGC | 0.0433 |
| ACCGGAAG | -0.0465 |
| AGAGCTAT | 0.00577 |
| GTCAGTAA | 0.0519 |
| AATATCCG | 0.157 |
| AACTAACA | 0.284 |

| Sequence | PBM E-score |
| --- | --- |
| AAATATTC | -0.0103 |
| GGGTAACC | -0.144 |
| CGAGTAAA | 0.167 |
| AAATAGAA | -0.158 |
| GTCTGGGA | -0.0661 |
| CCCTTGGC | -0.368 |
| AGCGGTGC | -0.0648 |
| GATATTAC | 0.284 |
| CGCGTTTC | 0.0154 |
| AGGTGTAG | 0.0602 |
| CATGCAGA | 0.125 |
| AATCGTAT | 0.153 |
| AGCGGCAC | -0.277 |
| CTAGGCTA | -0.18 |
| GGCGTTGA | -0.0951 |
| CAACACAG | 0.229 |
| GTTACTGA | 0.0507 |
| ACCTTGCC | 0.322 |
| ACGCCAAC | 0.00615 |
| GGCCGAGA | -0.209 |
| TGCTGGAA | 0.0344 |
| AACGCGTA | 0.289 |
